Reference: PubChem BioAssay AID488969 (Vanderbilt High Throughput Screening Facility, 2010)
In all, about 110,000 compounds were measured (“z-score”: median about -0.1, highest 2% from about 2 on). This is one part of the list. Calls of active or inactive are those of the source.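 The calls were made as follows: active = z-score in the third read window above 3 or below -3; inactive = the rest.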

What follows are molecules tested against Metabotropic glutamate receptor 8 (Rattus norvegicus) (UniProt P70579) (assay: rat mGluR8 modulators via GIRK flux, primary screen, cell-based, thallium flux, HTS (AID 488969)). Details: HEK293 rat mGluR8, GIRK (G protein-gated inwardly rectifying potassium channel) thallium flux, FluoZin2; at 10 µM; stronger effect = higher value; submaximal glutamate (EC20) added with thallium.
Chain of UniProt P70579 (P70579 whole entry, looked up): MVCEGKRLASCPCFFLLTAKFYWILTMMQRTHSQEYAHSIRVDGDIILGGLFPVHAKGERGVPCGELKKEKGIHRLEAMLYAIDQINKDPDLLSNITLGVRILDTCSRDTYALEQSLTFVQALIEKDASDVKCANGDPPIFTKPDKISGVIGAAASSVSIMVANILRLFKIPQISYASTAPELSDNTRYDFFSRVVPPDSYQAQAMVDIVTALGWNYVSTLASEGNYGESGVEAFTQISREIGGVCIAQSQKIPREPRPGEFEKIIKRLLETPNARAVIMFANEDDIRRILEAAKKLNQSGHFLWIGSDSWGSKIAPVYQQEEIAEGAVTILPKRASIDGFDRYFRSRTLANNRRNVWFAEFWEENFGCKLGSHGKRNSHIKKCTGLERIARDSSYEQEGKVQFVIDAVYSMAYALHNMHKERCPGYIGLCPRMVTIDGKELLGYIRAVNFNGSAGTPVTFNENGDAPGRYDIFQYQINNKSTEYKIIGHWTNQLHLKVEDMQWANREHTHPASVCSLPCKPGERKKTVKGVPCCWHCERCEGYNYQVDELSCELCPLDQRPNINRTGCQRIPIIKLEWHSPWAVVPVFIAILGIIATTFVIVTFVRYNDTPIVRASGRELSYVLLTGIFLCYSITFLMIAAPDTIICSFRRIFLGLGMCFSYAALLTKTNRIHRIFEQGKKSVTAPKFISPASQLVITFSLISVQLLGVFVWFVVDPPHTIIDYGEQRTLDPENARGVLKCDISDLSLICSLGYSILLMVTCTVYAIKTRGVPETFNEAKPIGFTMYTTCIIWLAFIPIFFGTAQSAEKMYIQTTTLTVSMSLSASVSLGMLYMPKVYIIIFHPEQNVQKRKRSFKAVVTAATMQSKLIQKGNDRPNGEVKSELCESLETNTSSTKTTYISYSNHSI

Row | Compound | z-score
1 | O=C(COC(=O)CCc1nc2ccccc2c(=O)[nH]1)NC(=O)NC1CCCC1 | -0.336
2 | Nc1nonc1-c1nc2ccccc2n1CC(=O)N1CCN(c2ccc(F)cc2)CC1 | -0.117
3 | COc1ccc(OCCOCCOc2ccc(C)cc2[N+](=O)[O-])cc1 | -0.176
4 | O=C(c1ccco1)N1CCN(C(=O)c2sccc2-c2ccccc2)CC1 | 1.95
5 | CCC(C)NS(=O)(=O)c1ccc(NS(C)(=O)=O)cc1 (stereo not drawn) | -0.507
6 | O=C1c2ccc(Oc3ccc4c(c3)C(=O)N(CCCCO)C4=O)cc2C(=O)N1CCCCO | -0.145
7 | CCOC(=O)c1c(C2CC2)csc1NC(=O)COC(=O)c1cc(OC)c(OC)cc1[N+](=O)[O-] | -0.175
8 | COc1ccc(-c2nc(CSCC(=O)N3CCC(C(N)=O)CC3)c(C)o2)cc1OC | -1.77
9 | Cc1ccc(Nc2nc(N/N=C/c3c[nH]c4ccccc34)nc(N3CCOCC3)n2)cc1 | -0.18
10 | Cc1cc(NC(=O)C2CCCCC2)n(-c2nc3ccccc3[nH]2)n1 | -0.0909
11 | CCCN1C(=O)C(O)(CC(=O)c2cccc(OC)c2)c2ccccc21 (stereo not drawn) | 0.257
12 | CCNc1nc2ccccc2[nH]1 | -0.309
13 | COC(=O)C(C(=O)Nc1ncccn1)C1CCCCCC1 (stereo not drawn) | 0.0614
14 | CCCNC(=O)c1cc(-c2ccc(OC)cc2)on1 | -0.153
15 | COC(=O)c1cc(OC)c(OC)cc1NCC(=O)Nc1ccc(C)cc1 | -0.403
16 | Cc1ccccc1Nc1nc(-c2sc(NC(=O)c3ccco3)nc2C)cs1 | -0.239
17 | C(=C\c1ccccc1)/C=N/Nc1nc(N2CCCCC2)nc(N2CCCCC2)n1 | -0.259
18 | C=CCNC(=O)CNS(=O)(=O)c1ccc(F)cc1 | 0.263
19 | COc1cccc(NC(=S)N(CCN(C)C)C(C)c2ccco2)c1 (stereo not drawn) | -0.105
20 | CCNc1nc(NC(C)C)nc(Oc2ccc(OCCOc3ccc(C)cc3)nn2)n1 | -0.284
21 | O=C(CSc1nnc(-c2ccncc2)n1Cc1ccco1)Nc1nc(-c2ccccc2)cs1 | -0.325
22 | Cc1noc(C)c1S(=O)(=O)N1CCCC(C(=O)NCCC2=CCCCC2)C1 (stereo not drawn) | 0.423

Row | Compound | z-score
23 | COc1cc(OC)cc(C(=O)Nc2cccc(N3CCCC3)c2)c1 | 0.0419
24 | CC(C)(C)NC(=O)NC(=O)COc1ccc(Br)cc1Br | -0.456
25 | Oc1ccc(Br)cc1-c1cc(-c2ccccc2F)[nH]n1 | -0.636
26 | O=C(Nc1cccc2c1CCCC2)c1ccc(Cl)c([N+](=O)[O-])c1 | -0.222
27 | O=C1NNC(=O)C2C3C=CC(C4CC34)C12 (stereo not drawn) | -0.491
28 | CC(/C=N/NC(=O)c1cccnc1)=C\c1ccco1 | 1.77
29 | NC(=O)c1ccccc1OCC(=O)NS(=O)(=O)c1ccc(Cl)cc1 | -0.342
30 | CCC(C)(C)NC(=O)C(c1ccc(C)cc1)N(Cc1ccco1)C(=O)Cn1nnc2ccccc21 (stereo not drawn) | 0.651
31 | CCOC(=O)c1ccccc1NC(=O)Cn1c(=O)n(Cc2ccccc2)c(=O)c2c(C)c(C)sc21 | -0.19
32 | Cc1ccc(Nc2nnc(SC/C(O)=C(\C#N)c3nc4ccccc4[nH]3)s2)c(C)c1 | -0.166
33 | C=CCN1C(=O)C(Cc2cccc(C)c2)SC1=Nc1ccc(C(=O)O)cc1 (stereo not drawn) | -0.381
34 | CN(C(=O)Cn1nnc(-c2cccc(C(F)(F)F)c2)n1)C1CCCCC1 | 0.0755
35 | CCSc1nnc(NC(=O)C(CC)(C(F)(F)F)C(F)(F)F)s1 | -0.322
36 | Cc1cc(C(=O)N/N=C/c2cccc(OC(=O)c3ccco3)c2)n[nH]1 | -0.279
37 | COC(=O)c1nn(-c2ccccc2)c(Cl)c1/C=N/OCc1ccc(C)cc1 | -0.126
38 | N=c1n(CCc2ccccc2)c2ccccc2n1Cc1ccccc1F | 1.16
39 | O=c1c2c3c(sc2n2cnnc2n1CCc1ccccc1)CCCC3 | -0.405
40 | COc1ccc(NC(=O)CCNS(=O)(=O)c2ccc(Br)s2)cc1 | -0.185
41 | CCCc1cc(Nc2cccc(OCC)c2)n2ncnc2n1 | -1.68
42 | O=C(Nc1ccon1)c1csc2ccccc12 | 0.337
43 | CCN(CC)c1nc(Nc2ccccc2)nc(Oc2ccc(C(=O)OC)cc2)n1 | -0.0347
44 | Cc1ccc(-n2c(Cn3nc(C(F)F)cc3C(F)F)n[nH]c2=S)cc1 | -0.51

Row | Compound | z-score
45 | Fc1ccccc1-n1[nH]nnc1=S | 0.115
46 | COc1cccc(-c2nc(CS(=O)CC(=O)NCCCOC(C)C)c(C)o2)c1 (stereo not drawn) | 0.567
47 | COc1ccc([N+](=O)[O-])cc1NC(=O)CSc1nc(C)cc(C)n1 | -0.947
48 | CC(/C=N/NC(=O)Cc1cccs1)=C\c1ccco1 | -0.15
49 | COc1ccc(-n2nnnc2SCC(=O)N2CCCc3ccccc32)cc1OC | -0.51
50 | CC(NC(=O)CN1CCc2ccccc21)c1ccccc1 (stereo not drawn) | -0.323
51 | CCC(Oc1ccccc1)C(=O)N1CCN(CC)CC1 (stereo not drawn) | -0.239
52 | Cc1cc2cc(C)c3nnc(SCC(=O)N4CCc5ccccc54)n3c2cc1C | -0.31
53 | CC(=O)N(c1cccc(C)c1)C1SC(=O)N(c2ccccc2)C1=O (stereo not drawn) | 0.416
54 | Cc1cc(NS(=O)(=O)c2ccc(NC(=O)CCCOc3ccc(Cl)cc3)cc2)no1 | -0.247
55 | Cc1ccc(-c2noc(CN3CCN(C(c4ccccc4)c4ccccc4)CC3)n2)cc1 | 0.316
56 | Cc1ccc(-n2c(C)cc(/C([O-])=C(/C(=S)Nc3ccc(F)c(Cl)c3)[n+]3ccccc3)c2C)cc1 | -0.212
57 | COC(=O)C1=C(C(C)=O)C(c2ccc(C(=O)OC)cc2)n2nnnc2N1 (stereo not drawn) | -1.83
58 | CCOC(=O)Cn1c(=O)oc2cc(S(=O)(=O)Nc3c(C)cc(C)cc3C)ccc21 | -0.223
59 | O=C(COC(=O)COc1ccc2ccccc2c1)NC1CCCc2ccccc21 (stereo not drawn) | -0.394
60 | COc1cccc(C2C(C(C)=O)=C(O)C(=O)N2Cc2ccco2)c1 (stereo not drawn) | -1.61
61 | CC(=O)/C(=N\Nc1ccc(Cl)cc1Cl)Sc1cccc2cccnc12 | 2.29
62 | COc1ccc(Cl)cc1N1CC(C(=O)Nc2nccs2)CC1=O (stereo not drawn) | 0.39
63 | CCN(C(=O)c1cccnc1)c1ccccc1 | 0.884
64 | CC(C)(C)C(=O)CCN1C(=O)C2(OCCO2)c2ccccc21 | -0.199
65 | CC(/C=C1\N=C(SCc2ccccc2Cl)SC1=O)=C\c1ccccc1 | -0.198
66 | COc1ccc(NC(=S)Nc2cccc(S(=O)(=O)N3CCCCC3)c2)cc1 | 0.241

Row | Compound | z-score
67 | CNC(=O)c1sc(N2N=C3/C(=C/c4ccccc4)CCCC3C2c2ccccc2)nc1C (stereo not drawn) | -0.962
68 | O=c1cc(O)nc(SCc2ccccc2)[nH]1 | -0.338
69 | Cc1ccc(NC(=O)COC(=O)c2cc(Cl)ccc2Cl)c(Br)c1 | -0.302
70 | O=C(NCCc1ccccc1)C1CCCN(S(=O)(=O)c2cccc3nsnc23)C1 (stereo not drawn) | -0.252
71 | Cc1ccc(Sc2nc3c(c(=O)[nH]c(=O)n3C)n2CCc2ccccc2)cc1 | -0.371
72 | CC(/C=N/n1c(COc2ccccc2)n[nH]c1=S)=C\c1ccccc1 | 1.93
73 | O=S(=O)(c1ccc(Cl)cc1)N1CCN(C(=S)Nc2ccc(F)c(Cl)c2)CC1 | 0.862
74 | CC1(C)Cc2ccccc2C(=O)N1 | 0.0959
75 | COc1ccc(NC(=O)CSC2=C(C#N)C(c3ccco3)C3=C(CCCC3=O)N2)c(OC)c1 (stereo not drawn) | -1.4
76 | O=C(Nc1cccc(C(F)(F)F)c1)c1ccc(Cn2cc(Br)cn2)o1 | -0.835
77 | CN1CC(=O)N(CC(=O)NCCc2ccc(F)cc2)c2ccccc2C1=O | -0.0409
78 | COc1ccccc1NC(=O)c1ccc(NS(=O)(=O)c2ccc(F)c(F)c2F)cc1 | -0.258
79 | Fc1ccc(C2=Nn3c(Cc4ccccc4)nnc3SC2)cc1 | -0.438
80 | Cc1ccc2nc(N3CCN(c4cccc(C)c4C)CC3)c3nnnn3c2c1 | -0.0475
81 | N#Cc1c(N)oc(-c2ccc3c(c2)OCO3)c1-c1ccc2c(c1)OCO2 | -0.0135
82 | CCCn1c2ccccc2c2cc(C(=O)O)ccc21 | 0.126
83 | CCn1c(SCC(=O)N/N=C/C(C)=C\c2ccco2)nnc1-c1ccccc1 | 0.0929
84 | O=C(CC1(O)C(=O)Nc2ccccc21)c1cccnc1 (stereo not drawn) | -0.0715
85 | O=c1c2ccccc2c(-c2ccccc2)nn1Cc1ccc(Cl)cc1 | -0.152
86 | COc1ccc(C(CC(=O)O)NC(=O)COc2ccccc2)cc1 (stereo not drawn) | 0.766
87 | COc1ccc(Cc2nnc(N/N=C/c3ccc(O)cc3O)[nH]c2=O)cc1OC | -0.455
88 | CC(C)c1ccc(NC(=S)NN2CCOCC2)cc1 | -0.0759

Row | Compound | z-score
89 | Cc1ccc(C)c(C(=O)COC(=O)c2ccc(Br)o2)c1 | -0.691
90 | COCCn1c(C)cc(C(=O)COC(=O)CCN2C(=O)c3ccccc3C2=O)c1C | -0.155
91 | Cc1nn(Cc2ccc(F)cc2)c(C)c1NC(=O)c1cnn2c1NC(c1cccs1)CC2C(F)(F)F (stereo not drawn) | -0.699
92 | CC(=O)C1=C(O)C(=O)N(c2ccc(S(N)(=O)=O)cc2)C1c1ccccc1F (stereo not drawn) | 0.472
93 | COc1ccc2nc(N3C(=O)CC(C(C)c4ccccc4)C3=O)sc2c1 (stereo not drawn) | -0.143
94 | COC(=O)c1sccc1NC(=O)CSc1ccccc1NS(=O)(=O)c1cc(Cl)ccc1Cl | active: 8.63
95 | COC(=O)c1cc(NC(=O)CC2C(=O)NCCN2C(=O)c2ccc(F)cc2)cc(C(=O)OC)c1 (stereo not drawn) | -0.116
96 | Cc1ccc(NS(=O)(=O)c2ccc(CCC(=O)NC3CC3)cc2)cc1 | -0.364
97 | CCN(CC)CCNC(=O)c1ccc2c(=O)n(C3CCCC3)c(=S)[nH]c2c1 | 0.125
98 | COc1cc(NC(=O)Cn2c(C)cc3ccccc3c2=O)cc(OC)c1OC | 0.368
99 | CCCCCC(=O)N1CCN(CCN=CC2=C(O)CC(c3ccc(OC)c(OC)c3)CC2=O)CC1 (stereo not drawn) | 0.026
100 | COC(=O)C1=C(C)N(C)C(C)=C(C(=O)OC)C1c1ccc(F)c(Br)c1 | -0.957
101 | O=C(NCc1ccncc1)C1CCCCC1 | 0.039
102 | COC(=O)c1ccccc1NC(=O)N1c2ccccc2Sc2ccccc21 | 0.97
103 | Cc1ccc2c(CSc3nncs3)cc(=O)oc2c1 | -0.00941
104 | Cc1nc(N2CCOCC2)c(C#N)c2c1COC(C)(C)C2 | -0.387
105 | CC(C)Cc1nc(N2CCN(C(=O)c3ccccc3)CC2)c(C#N)c2c1CCC2 | 0.457
106 | O=C1NCC(O)=C1C=NC12CC3CC(CC(C3)C1)C2 | 0.378
107 | CCN(CC)c1ccc(/C=C(\C#N)C(=O)NCc2ccccc2)cc1 | -0.155
108 | COC(=O)c1ccccc1NC1CC(=O)N(c2c(C)cccc2C)C1=O (stereo not drawn) | -0.474
